For three substances, binding results are on record in publication PMC12644247.

Amino acid sequences for entries named in this document (tags omitted). A change or cut given only in a name is not applied to a line headed by its entry.
UniProt Q9UJU2: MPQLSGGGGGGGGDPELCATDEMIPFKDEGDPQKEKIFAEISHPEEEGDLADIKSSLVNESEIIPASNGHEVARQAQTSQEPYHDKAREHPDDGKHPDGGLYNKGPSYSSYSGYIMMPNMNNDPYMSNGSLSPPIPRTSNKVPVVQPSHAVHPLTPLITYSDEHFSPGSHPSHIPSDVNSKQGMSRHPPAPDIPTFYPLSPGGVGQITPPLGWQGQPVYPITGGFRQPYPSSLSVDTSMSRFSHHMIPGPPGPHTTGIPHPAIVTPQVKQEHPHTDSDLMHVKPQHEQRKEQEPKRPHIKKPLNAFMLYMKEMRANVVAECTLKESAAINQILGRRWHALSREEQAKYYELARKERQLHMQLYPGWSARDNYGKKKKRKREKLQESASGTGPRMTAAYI
UniProt P35222: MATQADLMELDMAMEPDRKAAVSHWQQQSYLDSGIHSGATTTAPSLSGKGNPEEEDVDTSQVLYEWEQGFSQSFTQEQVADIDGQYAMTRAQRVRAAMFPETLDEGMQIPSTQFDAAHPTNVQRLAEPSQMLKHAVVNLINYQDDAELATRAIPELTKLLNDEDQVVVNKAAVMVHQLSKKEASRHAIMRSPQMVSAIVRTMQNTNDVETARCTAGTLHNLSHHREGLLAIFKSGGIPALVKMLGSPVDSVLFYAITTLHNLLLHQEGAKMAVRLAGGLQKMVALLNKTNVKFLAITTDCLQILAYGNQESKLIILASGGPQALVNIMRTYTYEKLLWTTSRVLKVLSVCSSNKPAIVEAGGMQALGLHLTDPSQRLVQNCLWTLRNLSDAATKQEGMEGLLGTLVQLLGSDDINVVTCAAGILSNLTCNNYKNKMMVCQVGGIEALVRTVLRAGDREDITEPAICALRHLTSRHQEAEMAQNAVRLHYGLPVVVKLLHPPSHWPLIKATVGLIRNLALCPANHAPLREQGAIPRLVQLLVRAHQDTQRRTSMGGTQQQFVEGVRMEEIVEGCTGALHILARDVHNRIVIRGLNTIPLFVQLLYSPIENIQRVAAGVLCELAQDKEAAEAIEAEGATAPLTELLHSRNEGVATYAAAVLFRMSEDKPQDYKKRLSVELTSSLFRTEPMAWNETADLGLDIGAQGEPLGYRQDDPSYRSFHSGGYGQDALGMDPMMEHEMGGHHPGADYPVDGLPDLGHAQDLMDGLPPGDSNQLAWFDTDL
UniProt Q92793: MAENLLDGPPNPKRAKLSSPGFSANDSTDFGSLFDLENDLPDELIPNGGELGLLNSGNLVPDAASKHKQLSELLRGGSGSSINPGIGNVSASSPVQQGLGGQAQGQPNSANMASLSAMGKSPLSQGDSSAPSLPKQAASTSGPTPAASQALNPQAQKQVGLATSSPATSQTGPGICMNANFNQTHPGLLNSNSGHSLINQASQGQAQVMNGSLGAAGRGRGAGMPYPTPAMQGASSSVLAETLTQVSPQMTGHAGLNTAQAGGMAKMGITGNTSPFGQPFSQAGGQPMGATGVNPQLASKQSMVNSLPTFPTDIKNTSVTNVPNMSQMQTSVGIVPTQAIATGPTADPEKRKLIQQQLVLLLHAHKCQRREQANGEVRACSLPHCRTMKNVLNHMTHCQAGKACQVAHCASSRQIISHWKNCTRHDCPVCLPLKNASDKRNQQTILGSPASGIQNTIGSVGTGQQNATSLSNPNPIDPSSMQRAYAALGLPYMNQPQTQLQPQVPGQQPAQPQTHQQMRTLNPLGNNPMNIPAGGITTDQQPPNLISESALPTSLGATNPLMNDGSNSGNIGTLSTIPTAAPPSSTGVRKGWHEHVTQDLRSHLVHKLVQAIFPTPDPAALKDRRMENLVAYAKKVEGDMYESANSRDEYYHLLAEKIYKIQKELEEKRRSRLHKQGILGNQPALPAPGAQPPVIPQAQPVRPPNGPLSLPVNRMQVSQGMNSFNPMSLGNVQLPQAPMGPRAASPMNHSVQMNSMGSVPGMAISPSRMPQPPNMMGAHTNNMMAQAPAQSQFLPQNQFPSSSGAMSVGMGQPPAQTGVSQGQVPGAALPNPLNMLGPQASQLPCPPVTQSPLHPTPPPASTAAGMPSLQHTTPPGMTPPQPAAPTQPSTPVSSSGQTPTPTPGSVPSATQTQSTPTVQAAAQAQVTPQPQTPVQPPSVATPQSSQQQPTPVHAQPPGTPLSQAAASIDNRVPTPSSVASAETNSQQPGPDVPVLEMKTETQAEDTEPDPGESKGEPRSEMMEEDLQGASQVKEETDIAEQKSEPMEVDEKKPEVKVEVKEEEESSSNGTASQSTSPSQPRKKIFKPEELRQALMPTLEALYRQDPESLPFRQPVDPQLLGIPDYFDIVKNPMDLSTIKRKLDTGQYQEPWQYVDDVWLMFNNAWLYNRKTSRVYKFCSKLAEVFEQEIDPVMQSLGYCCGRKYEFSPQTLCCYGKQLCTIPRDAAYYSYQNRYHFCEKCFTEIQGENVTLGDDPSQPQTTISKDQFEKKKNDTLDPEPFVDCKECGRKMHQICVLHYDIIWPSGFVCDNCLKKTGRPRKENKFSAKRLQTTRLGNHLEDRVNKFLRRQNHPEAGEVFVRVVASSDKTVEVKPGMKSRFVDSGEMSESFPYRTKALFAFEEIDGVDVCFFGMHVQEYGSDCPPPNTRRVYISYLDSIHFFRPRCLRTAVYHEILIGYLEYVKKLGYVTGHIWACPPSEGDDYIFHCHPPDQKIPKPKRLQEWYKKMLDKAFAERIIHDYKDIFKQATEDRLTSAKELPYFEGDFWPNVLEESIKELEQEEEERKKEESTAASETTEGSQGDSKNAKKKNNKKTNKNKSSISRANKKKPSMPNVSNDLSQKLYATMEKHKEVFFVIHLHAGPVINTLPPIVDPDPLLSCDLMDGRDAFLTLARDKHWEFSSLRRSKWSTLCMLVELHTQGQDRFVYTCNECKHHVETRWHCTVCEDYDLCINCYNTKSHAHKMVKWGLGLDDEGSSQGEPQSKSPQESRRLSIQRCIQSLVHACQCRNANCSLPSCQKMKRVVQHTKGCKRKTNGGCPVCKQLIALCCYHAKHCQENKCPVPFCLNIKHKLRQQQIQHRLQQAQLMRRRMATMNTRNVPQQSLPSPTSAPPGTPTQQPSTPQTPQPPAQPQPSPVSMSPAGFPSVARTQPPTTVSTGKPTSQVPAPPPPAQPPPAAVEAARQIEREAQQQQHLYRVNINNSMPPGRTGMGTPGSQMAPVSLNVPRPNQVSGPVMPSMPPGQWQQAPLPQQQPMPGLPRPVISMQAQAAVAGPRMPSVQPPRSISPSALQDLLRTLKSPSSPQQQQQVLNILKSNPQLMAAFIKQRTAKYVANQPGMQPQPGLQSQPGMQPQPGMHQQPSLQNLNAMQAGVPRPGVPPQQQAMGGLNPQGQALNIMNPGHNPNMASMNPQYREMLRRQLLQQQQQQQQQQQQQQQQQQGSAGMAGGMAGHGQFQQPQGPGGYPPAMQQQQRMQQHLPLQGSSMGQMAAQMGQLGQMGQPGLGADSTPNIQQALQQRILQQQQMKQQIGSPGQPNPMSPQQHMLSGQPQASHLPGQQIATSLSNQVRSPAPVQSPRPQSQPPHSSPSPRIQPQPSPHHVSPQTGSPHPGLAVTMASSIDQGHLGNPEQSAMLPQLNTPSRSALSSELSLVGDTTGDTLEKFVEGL

No constants are given. Whether binding was seen depends on the method and setting. In cells and extracts the contact can be indirect. Some entries that bind do so weakly or less than the wild type.

In assay [1] the target is Flag‐LEF1‐K379A/K382A (UniProt Q9UJU2). In words: co-IP; anti-Flag beads, HEK293 cells transfected with Flag-LEF1 or Flag-LEF1-K379A/K382A, with His-vector or His-USP30 (Figures 5B,C and 6D,E); CBP and P300 rows: without His-USP30.
In assay [2] the target is Flag‐LEF1 (wild type) (UniProt Q9UJU2). Described as above.
Assay [3] deals with β‐catenin (human (endogenous in HEK293)) (UniProt P35222). Briefly: co-IP; anti-β-catenin antibody, HEK293 cells transfected with His-vector or His-USP30 (Figures 5A, S6G); CBP and P300 rows: without His-USP30.
For assay [4], the target named is Flag‐LEF1 (wild type) (UniProt Q9UJU2). Briefly: condition: only with His-USP30 overexpressed in the cells; co-IP; anti-Flag beads, HEK293 cells co-transfected with Flag-LEF1 and His-USP30 (Figure 5B,C).
In assay [5] the target is β‐catenin (human (endogenous in HEK293)) (UniProt P35222). Briefly: condition: only with His-USP30 overexpressed in the cells; co-IP; anti-β-catenin antibody, HEK293 cells with His-USP30 overexpression (Figures 5A, S6G).

Regarding β‐catenin (from UniProt P35222 1-781), the binding entry in assay [1] and in assay [2] was “binds” in each case.

Take “transcription factor TCF/LEF1, endogenous (from UniProt Q9UJU2 1-399)”: the binding result in assay [3] was “binds”.

“CBP (from UniProt Q92793 1-2442) (enzyme)”: the binding result in assay [4] was “no binding”; in assay [5] it was “no binding”; in assay [3] it was “binds”; in assay [2] it was “binds”.
